Laboratory results from paper PMC9000588, “Structure/Function Analysis of Truncated Amino-Terminal ACE2 Peptide Analogs That Bind to SARS-CoV-2 Spike Glycoprotein” (Molecules, 2022).
Numbered stars: 1 amine (or outer) side, 2 acyl side, 3 side chain; on linkers, the order of the positions; unused ones are H or OH. Bridge positions count the residues as written; N and C are the ends. Ends that are not written are not given here. Suc = O=C(CCC(=O)[*:2])[*:1]

B1: Peptide 4 (Suc-KFNHEAEDLFEKLM-NH2) (peptide)
peptide: Suc-KFNHEAEDLFEKLM-NH2
SMILES: CSCC[C@H](NC(=O)[C@H](CC(C)C)NC(=O)[C@H](CCCCN)NC(=O)[C@H](CCC(=O)O)NC(=O)[C@H](Cc1ccccc1)NC(=O)[C@H](CC(C)C)NC(=O)[C@H](CC(=O)O)NC(=O)[C@H](CCC(=O)O)NC(=O)[C@H](C)NC(=O)[C@H](CCC(=O)O)NC(=O)[C@H](Cc1c[nH]cn1)NC(=O)[C@H](CC(N)=O)NC(=O)[C@H](Cc1ccccc1)NC(=O)[C@H](CCCCN)NC(=O)CCC(=O)O)C(N)=O
B2: Peptide 6 (CKFNHEAEDLFEKLMC-NH2, S=S bridge) (peptide)
peptide: CKFNHEAEDLFEKLMC-NH2
modifications: disulfide 1-16; N-terminus assumed
SMILES: CSCC[C@@H]1NC(=O)[C@H](CC(C)C)NC(=O)[C@H](CCCCN)NC(=O)[C@H](CCC(=O)O)NC(=O)[C@H](Cc2ccccc2)NC(=O)[C@H](CC(C)C)NC(=O)[C@H](CC(=O)O)NC(=O)[C@H](CCC(=O)O)NC(=O)[C@H](C)NC(=O)[C@H](CCC(=O)O)NC(=O)[C@H](Cc2c[nH]cn2)NC(=O)[C@H](CC(N)=O)NC(=O)[C@H](Cc2ccccc2)NC(=O)[C@H](CCCCN)NC(=O)[C@@H](N)CSSC[C@@H](C(N)=O)NC1=O
B3: Peptide 7 (Suc-KFNHEAEDLFEKLFEELFEDM-NH2) (peptide)
peptide: Suc-KFNHEAEDLFEKLFEELFEDM-NH2
SMILES: CSCC[C@H](NC(=O)[C@H](CC(=O)O)NC(=O)[C@H](CCC(=O)O)NC(=O)[C@H](Cc1ccccc1)NC(=O)[C@H](CC(C)C)NC(=O)[C@H](CCC(=O)O)NC(=O)[C@H](CCC(=O)O)NC(=O)[C@H](Cc1ccccc1)NC(=O)[C@H](CC(C)C)NC(=O)[C@H](CCCCN)NC(=O)[C@H](CCC(=O)O)NC(=O)[C@H](Cc1ccccc1)NC(=O)[C@H](CC(C)C)NC(=O)[C@H](CC(=O)O)NC(=O)[C@H](CCC(=O)O)NC(=O)[C@H](C)NC(=O)[C@H](CCC(=O)O)NC(=O)[C@H](Cc1c[nH]cn1)NC(=O)[C@H](CC(N)=O)NC(=O)[C@H](Cc1ccccc1)NC(=O)[C@H](CCCCN)NC(=O)CCC(=O)O)C(N)=O
B4: Peptide 9 (Suc-LLEKLLEWLE-NH2) (peptide)
peptide: Suc-LLEKLLEWLE-NH2
SMILES: CC(C)C[C@H](NC(=O)CCC(=O)O)C(=O)N[C@@H](CC(C)C)C(=O)N[C@@H](CCC(=O)O)C(=O)N[C@@H](CCCCN)C(=O)N[C@@H](CC(C)C)C(=O)N[C@@H](CC(C)C)C(=O)N[C@@H](CCC(=O)O)C(=O)N[C@@H](Cc1c[nH]c2ccccc12)C(=O)N[C@@H](CC(C)C)C(=O)N[C@@H](CCC(=O)O)C(N)=O
B5: Peptide 1 (KFNHEAEDLFEKLM-OH) (peptide)
peptide: KFNHEAEDLFEKLM-OH
notes: also called ACE2(31-40)EKLM(82); the basic 14-mer

Biological target: T1, recombinant SARS-CoV-2 spike glycoprotein receptor-binding domain (SARS-CoV-2, UniProt P0DTC2)
T1 construct: also called SARS-CoV-2 spike protein RBD; SPG RBD; source: bought: Sino Biological; expressed via baculovirus-insect cells; not shown: His tag (polyhistidine), C-terminal, kept
Test: SPR
Conditions: both partners purified

Point of comparison: B5, Kd 2840 µM. Against it:
- KFNHEAEDLFEKLM (head-to-tail cycle (amide bond between the N-terminus and the C-terminus), also called cyclic 14-mer) [Peptide 3 (KFNHEAEDLFEKLM, head-to-tail cycle)] — 5.5-fold lower, 518 µM
- B1 — 2.1-fold lower, 1370 µM
- Ac-KFNHEAEDLFEKLM-OH [Peptide 5 (Ac-KFNHEAEDLFEKLM-OH)] — 15-fold higher, 42900 µM
- B2 — 1.6-fold lower, 1830 µM
- B3 — 1.8-fold higher, 5050 µM
- GLFKEALEELWEA-NH2 [Peptide 8 (GLFKEALEELWEA-NH2)] — within 1.5-fold, 2530 µM
- B4 — within 1.5-fold, 3370 µM
- KFNDEAEDLFKLFEELFEDM-NH2 [Peptide 10 (KFNDEAEDLFKLFEELFEDM-NH2)] — within 1.5-fold, 2660 µM
- KFNHEAEDLFEKLM-NH2 [Peptide 2 (KFNHEAEDLFEKLM-NH2)] — 8.1-fold higher, 23100 µM

Point of comparison: GLFKEALEELWEA-NH2 [Peptide 8 (GLFKEALEELWEA-NH2)], kon 5.39 M⁻¹ s⁻¹. Against it:
- KFNHEAEDLFEKLM (head-to-tail cycle (amide bond between the N-terminus and the C-terminus), also called cyclic 14-mer) [Peptide 3 (KFNHEAEDLFEKLM, head-to-tail cycle)] — 2.8-fold higher, 15.1 M⁻¹ s⁻¹
- B1 — 2.6-fold higher, 13.9 M⁻¹ s⁻¹
- Ac-KFNHEAEDLFEKLM-OH [Peptide 5 (Ac-KFNHEAEDLFEKLM-OH)] — 8.4-fold lower, 0.64 M⁻¹ s⁻¹
- B2 — within 1.5-fold, 6.84 M⁻¹ s⁻¹
- B3 — within 1.5-fold, 4.29 M⁻¹ s⁻¹
- B4 — within 1.5-fold, 5.83 M⁻¹ s⁻¹
- KFNDEAEDLFKLFEELFEDM-NH2 [Peptide 10 (KFNDEAEDLFKLFEELFEDM-NH2)] — within 1.5-fold, 6.81 M⁻¹ s⁻¹
- B5 — within 1.5-fold, 4.62 M⁻¹ s⁻¹
- KFNHEAEDLFEKLM-NH2 [Peptide 2 (KFNHEAEDLFEKLM-NH2)] — 4.7-fold lower, 1.15 M⁻¹ s⁻¹
